Measurements: the supplement of paper PMC11417369
The list shows a part of the results.

system: PfAP2-HC AP2 domain (GST-tagged); assay: gcPBM binding intensity (ln(normalized median fluorescence intensity)); higher = stronger DNA binding
Method in brief: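 Using an Agilent 4 × 180k array, primer-extended double-stranded 36-bp intergenic genomic probes and negative controls were exposed for 1 h to GST-fused P. falciparum DNA-binding domains expressed in E. coli. Binding was carried out in 1× PBS with 1% milk, 0.2 mg/ml BSA, 0.5% salmon testes DNA and 0.03% Triton X-100, and protein was detected with Alexa488 anti-GST antibody and a 488 nm scan. Binding intensity is the highest Masliner-normalised natural-log median intensity across replicate spots of either probe orientation.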

Row | Sequence | gcPBM binding intensity (ln)
1 | GAGCATTACACATATACACACATATATATAAACATA [CACACA_site5515] | 10
2 | CATATGATATTATTTTGTACTTATTACAAATATGAA [XGTACX_site7929] | 9.52
3 | ATATATATATATATTTGTACATAATATATATATGCA [XGTACX_site1795] | 9.57
4 | AAAAAAAAATAGAAATGTACAAATTGTAATAATTCC [XGTACX_site6182] | 9.72
5 | ATTTTCCTATTTAGTAGTACTTTTTTCTTTTTTTAA [XGTACX_site5260] | 9.7
6 | TTATATTTCACAAATGTGCACAGATACATATATATA | 9.68
7 | TCGTCTCAATAATTATAATAAAAAAATTCCTAAGTC [CACACA_negctrl_site338] | 9.38
8 | TTATATGTATATATAGTGCAGAACAAAAGATTATAT [GTGCAC_site9599] | 9.7
9 | TTTTTGTTTCATAAATGTACAAAAACAAACATATTT [XGTACX_site5281] | 9.51
10 | CTTATAAATAAAAGAAGTACATGTTAGTTCAAGTTA [XGTACX_site4183] | 9.6
11 | TTGAAGAAAAAAAAATGTACATAAAAAATATATATG [XGTACX_site428] | 9.64
12 | TTATTATCATCAAATCAAAAAATTCTTTTACCTGTT [CACACA_negctrl_site1348] | 9.49
13 | TATATATATATATGTAGTACCTATAATATTAAATAC [XGTACX_site6118] | 9.65
14 | AAGAAAAGAAACAAAAAAAAAAAGAAATAAAAGGAA [TGCATGCA_negctrl_site171] | 9.55
15 | TATGAATGGTTAAGTACACACATATTAATATAGGTA [CACACA_site7606] | 9.86
16 | ATCAATAAATAAAATGTGCACATAATATATTAATAC | 9.9
17 | AATTTTTTTTTTTTTTTTTTTTATATATGTGTGTGT [XGTACX_negctrl_site129] | 11
18 | TATAAAAAATATATATATAATATTATATATATATAT [TGCATGCA_negctrl_site260] | 9.56
19 | ATTTTTTTTTTTTTTTGTACGAATAATATGTATGAA [XGTACX_site5318] | 9.47

Row | Sequence | gcPBM binding intensity (ln)
20 | AAAGGAGGGAATTTTTCTAGGTGTGGAGTGCTACTC [XGTACX_negctrl_site63] | 10.1
21 | TTTCATCTCGTCATTTCTTATATAACTATTTTATAC [CACACA_negctrl_site813] | 9.81
22 | ATTATTGTTTATTGATTTTTGTTAAAATAGGAAATT [GTGCAC_negctrl_site181] | 9.45
23 | ATTATATTTATTAATATGTATATTTAATTATATTTA [XGTACX_negctrl_site376] | 9.27
24 | TTCTTTATTATATGCACACGTACATAAAATATATAT [CACACA_site5157] | 9.82
25 | CAAATTTTTTATTAAACACACAAACATATATATATA [CACACA_site5122] | 9.66
26 | AAGTGTAAAAGTTACACACACAAACTTGTCATTTTT [CACACA_site4614] | 9.99
27 | AAAAACAAAATATAATGTACACAATATATGTATATA [XGTACX_site2301] | 9.95
28 | AAATATTACTACACTACATGCAGTTTTAGGTACACT [TGCATGCA_site42] | 9.73
29 | AATAAACATAAATACACACACAAAAAAAAAAACATA [CACACA_site4396] | 10.3
30 | TTTTTTTTTTTTTGATGTACTAAAAAAAATGAGCCT [XGTACX_site8535] | 9.03
31 | GATATTAAAATATGTAGTACACATATTATATCATAT [XGTACX_site4167] | 9.69
32 | TTAAAAATTATGGATACACACATATATATATATATT [CACACA_site2383] | 9.84
33 | ATAGTTCCTTTTAATACACACAAAAAAAAAAACATG [CACACA_site3415] | 9.69
34 | TGTAGTCTGGAGAAGAGTACATAGTATCTGGTAACA [XGTACX_site4944] | 9.63
35 | TATAGGTAAATGGACACACACATATTTATATTTATA [CACACA_site7683] | 10.1
36 | TAATGTTTTTATATCACACACAAATATTAAATGATT [CACACA_site543] | 9.83
37 | TTATTAGGTGTATAATGTACATATAATATATATATA [XGTACX_site3398] | 9.61
38 | ATAGAAGCATCACACTGTACATGGATGAACAGAAAA [XGTACX_site7311] | 9.82

Row | Sequence | gcPBM binding intensity (ln)
39 | TATAATATAAGGATCACACACAAACAGACATATATA [CACACA_site557] | 10.2
40 | ATAATTTCTTTTACATGTACAAAATTTGCTTATATG [XGTACX_site5388] | 9.78
41 | TATATATATACATACATACACACATATATATATATA [CACACA_site4109] | 9.85
42 | ATATATATAATGTGAAGTACATTTTGTTTACATATT [XGTACX_site8405] | 9.72
43 | TTTACACTTTCCAATAGTACATATTAGAATAATTCT [XGTACX_site7734] | 9.56
44 | TTTATTAAATAATCTCTTTTTATTACATAATAATAA [XGTACX_negctrl_site382] | 9.4
45 | GGATTATTTATAGGAGTGCATACATATATATATATA [GTGCAC_site9454] | 9.87
46 | TAATTTATGGAATATGTGCACTTGCTGATCACTTTT [GTGCAC_site9843] | 9.73
47 | ATTAGCTACAAACAAAGGCTACCTATAGCAAGAGGG [GTGCAC_negctrl_site33] | 9.84
48 | AATTTAATCCGTAATAAGAAAAGAAAAAAAAAAAGA [GTGCAC_negctrl_site129] | 9.55
49 | CCAATACATAGAAACTGTACATTATGCATTATACAC [XGTACX_site3531] | 9.74
50 | AATATCTAAATAAAGTGTACTTACCTTATTAATTAT [XGTACX_site2276] | 9.64
51 | ATCGAAGGGGTACAAAATAAAAATAATTCTTTCAAA [TGCATGCA_negctrl_site373] | 9.38
52 | TATAAATAAATATGGAGTACCAAAAAAATTATAAAA [XGTACX_site7581] | 9.74
53 | AAGTGTTATGAAATATGTACACATATATTATATATA [XGTACX_site6022] | 9.72
54 | ATACAAATTAAGCCTCAAGTTCTTTTTTTTAACATA [XGTACX_negctrl_site580] | 9.5
55 | ATATAACATGGACACACACACATATATATATATTAT [CACACA_site6135] | 10.4
56 | GTGAAATTATATTTTTGTACATATATTATATATTAT [XGTACX_site3387] | 9.86
